Data published in PubChem BioAssay AID1508623 (National Center for Advancing Translational Sciences (NCATS), 2021).
Hit rate of the full screen: of about 48,000 compounds, about 450 (0.94%) were called active. Inconclusive results (about 19%) are left out. Calls come from the whole dose curve; as a rule, active = well fitted inhibition curve with a large enough effect; inconclusive = small, poorly fitted or top-dose-only effect; inactive = no such curve, though single readings can be large or run the other way. The list shows a part of the results.

Experiment: Primary qHTS for Identification of Small Molecule Inhibitors of Huntingtin Promoter Activity; note: nearly all actives have a fitted effect of over 50% in size
Conditions: HEK293 HTT promoter firefly luciferase reporter (activity 0% = vehicle and -100% = no light), 24 h; series mostly up to 57.5 µM; activity change, negative = inhibition: at the top concentration
Procedure, shortened: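 Firefly luciferase readout (Dual-Glo, 10 min RT) after 24 h, 37 °C compound exposure (final up to 57.5 uM) of HEK293 reporter cells cultured 24 h beforehand; PTC124 at 50 uM final as control inhibitor; activity scaled vehicle 0%, zero RLU -100%.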

Activity change, negative = inhibition, inactive:
COC(=O)c1cc(NC(=O)[C@H](CCS(C)(=O)=O)N2Cc3ccccc3C2=O)cc(C(=O)OC)c1 -17.3%
CCc1ccc(-c2nc3cc(NC(=O)c4cc5ccccc5cc4OC)ccc3o2)cc1 -22%
COc1ccc(Br)c(C(=O)Nc2cc3c(cc2N2CCCCC2)n(C)c(=O)c(=O)n3C)c1 -15.4%
CCc1cc(C(=O)NC(C)c2ccccc2)no1 (stereo not drawn) -8.47%
COc1cc2c(cc1OC)C(COc1ccc(F)cc1)N(C(=O)c1ccc(S(=O)(=O)N3CCCC3)cc1)CC2 (stereo not drawn) -16%
O=C(CCCn1c(=O)c2ccccc2n(Cc2ccc(F)cc2Cl)c1=O)NCCc1ccc(Cl)cc1 -2.57%
COC(=O)c1ccccc1NC(=O)c1ccc2nc(Cc3ccccc3)oc2c1 6.41%
CC(=O)Nc1ccc(NC(=O)c2ccc(COc3ccc(Cl)cc3Cl)o2)cc1 -17.1%
Cc1cccc(NC(=O)c2c(C)cc(C)nc2SCC(=O)Nc2c(C)cc(C)cc2C)c1 -26.1%
CCOc1ccc(-c2cc(-c3nc(-c4cc(OC)c(OC)c(OC)c4)no3)[nH]n2)cc1Cl -16.5%
Cc1ccc(-n2nc(CO)c(C(=O)NCc3cccs3)n2)cc1C -15.2%
COc1ccc(C)cc1NC(=O)C1CCN(S(=O)(=O)c2ccc3[nH]c4c(c3c2)CCCCC4)CC1 -26.6%
Nc1cc(=O)nc(SCC(=O)Nc2ccc(F)cc2)n1-c1ccccc1Cl -31.4% [at 11.5 µM]
O=C(COc1ccc([N+](=O)[O-])cc1)NCC1(N2CCOCC2)CCCCC1 -15.3%
Oc1c(C(c2ccccc2F)N2CCCCC2)sc2nc(-c3ccco3)nn12 (stereo not drawn) 14.2%
CC(=O)c1cccc(NC(=O)CSc2nc(=O)n(Cc3cccnc3)c3c2CCC3)c1 -24.5%
CC(C)CC(=O)Nc1ccc(S(=O)(=O)Nc2cc3c(cc2N2CCOCC2)n(C)c(=O)c(=O)n3C)cc1 -11.1%
Cc1ccc(NC(=O)c2cn3c4c(ccc(Cl)c4c2=O)OC(C)C3)c(C)c1 (stereo not drawn) -10.5%
CCCCc1nc2ccccc2n2c(-c3ccc(OC)cc3)c3c(=O)n(C)c(=O)n(C)c3c12 -7.69%
Cc1c(C(=O)N2CCC(C)CC2)c(S(=O)(=O)NCc2ccc(Br)cc2)c(C)n1C -22.5%
COc1ccc(-n2ncc(C(=O)N3CCN(c4ncccn4)CC3)c2C2CCN(C(=O)OC(C)(C)C)CC2)cc1 1.14%
Cc1nc2sccn2c(=O)c1CCN1CCC(=C(c2ccc(F)cc2)c2ccc(F)cc2)CC1 -1.26%
Cc1ccccc1Nc1c(-c2ccc(Cl)s2)nc2c(C)cccn12 2.47%
CC(C)(C)OC(=O)N1CCC(c2c(C(=O)NCCCN3CCc4ccccc4C3)cnn2-c2ccccc2)CC1 -7.85%
CCOc1ccccc1NC(=O)Cn1c(=O)n(CCCC(=O)NCCc2ccc(C)cc2)c(=O)c2ccccc21 -5.46%
COc1ccc(-c2c(C)c3cc(OC(=O)N4CCOCC4)ccc3oc2=O)cc1 -24.4%
C[C@H](CCC(=O)O)[C@H]1CC[C@H]2[C@@H]3C(=O)C[C@@H]4CC(=O)CC[C@]4(C)[C@H]3CC(=O)[C@]12C 5.69%
O=C(Cn1cc(SCc2ccccc2)c2ccccc21)N1CCCCC1 -3.62%
COc1ccc(-c2nc(C)c(CCNC(=O)C(=O)Nc3c(C)cccc3C)s2)cc1OC 0.854%
CCc1ccc(CNC(=O)CN(c2ccc(C)cc2)S(=O)(=O)N(C)C)cc1 -18.8%
COc1ccc(OC)c(CCNC(=O)C2CCN(c3ncnc4c3nc3n4CCCCC3)CC2)c1 -4.7%
CCN(CC)S(=O)(=O)c1ccc2c(c1)c(=O)c(C(=O)NCCc1ccc(OC)c(OC)c1)cn2C 5.34%
COC(=O)CNC(c1ccccc1)c1cc(Br)ccc1NC(=O)c1ccc(Cl)cc1 (stereo not drawn) -26.1%
Cc1nc2ccn(Cc3ccccc3)c(=O)c2cc1C(=O)Nc1ccc(F)cc1Cl -7.61%
CCC(=O)N1CCc2cc(Br)cc(S(=O)(=O)NCc3cccc(OC)c3)c21 1.71%
Cc1ccc(C)c(NC(=O)CCc2nc3cccnc3n2Cc2cccs2)c1 -20.5%
CCN(CC)C(=O)CSc1nc(-c2ccccc2)cc(-c2ccc(OC)cc2)c1C#N -2.68%
COc1cccc(NC(=O)Cn2c(=O)n(-c3ccccc3)c(=O)c3c4c(sc32)CCCC4)c1 -13.6%
Cc1cc2nc(NC(=O)c3ccc(S(=O)(=O)N4CCOCC4)cc3)sc2cc1C 2.54%
COc1ccccc1-c1noc(-c2ccc(NCc3ccccc3)c([N+](=O)[O-])c2)n1 -7.56%
CCOc1ccc(NC(=O)Nc2cccc(C)n2)cc1 49.4%
COCCCN1CN=C(NS(=O)(=O)c2ccc(NC(C)=O)cc2)NC1 -10.9%
CCOC(=O)c1sc2ccccc2c1S(=O)(=O)N1CCN(c2ccccc2F)CC1 -13.7%
CCC(=O)N1CCc2cc(S(=O)(=O)N3CCN(c4ccccc4F)CC3)ccc21 2.11%
COc1cc(OC)c(NC(=O)Cn2nc(C)n3cccc3c2=O)cc1Cl 14.2%
COc1ccc(C)cc1NC(=O)CN1C(=O)CSc2ccc(S(=O)(=O)N3CCCC3)cc21 -9.71%
CC1=C(c2cccc(Cl)c2)S(=O)(=O)NC1=NCc1ccccc1C -19.8%
COc1ccc(-c2cn3nc(N4CCC(C(=O)NCc5cccc(Cl)c5)CC4)sc3n2)cc1 18.7%
COC(=O)c1ccc(Nc2nc(-c3ccc(C)cc3)nc3ccccc23)cc1 21.1%
Cc1ccccc1Cn1cnc2c(oc3ccccc32)c1=O 1.47%
CC1=Nc2cc(C(=O)NC3CCC(C)CC3)ccc2Sc2c(C)ccc(C)c21 (stereo not drawn) -4.87%
CCN(CC)C(=O)Cn1ncc2c([nH]c3ccc(C)cc32)c1=O 2.64%
COc1ccc(NC(=O)c2ccc3c(c2)N(Cc2cccc(Cl)c2)C(=O)c2ccccc2S3(=O)=O)cc1Cl -10.3%
Cc1ccc(-n2nc(C(=O)NCc3ccc(F)cc3Cl)c3c4ccccc4n(C)c3c2=O)cc1 -14.3%
FC(F)(F)c1ccc2c(c1)ncc1c(-c3ccccc3)nn(-c3ccccc3)c12 1.65%
CCOC(=O)c1c(NC(=O)CSc2cn(CCNC(=O)c3ccc(OC)c(OC)c3)c3ccccc23)sc2c1CCC2 -31%
Cc1cc(C)n2nc(-c3ccc(Cl)cc3)nc2n1 56.6%
Cc1cccc(N2CCN(c3nc4ccc(C(=O)c5ccccc5)cc4n4cnnc34)CC2C)c1 (stereo not drawn) -2.77%
